# Assay results reported in the supplement of paper PMC10498489.
# In all, about 2,300 compounds went through this assay and about 330 (14%) showed activity.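 How the source made its calls: active = median modified Z-score above 1.96; inactive = 1.96 or below.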 This is a selection; strong and weak results do not stand in their true shares.
# Test system: HepG2 Srxn1-GFP reporter cells (+30 nM CDDO-Me)
# Assay: Srxn1-GFP intensity median modified Z-score relative to plate median; higher = stronger NRF2 / oxidative stress reporter activation, active = hit call of the paper
# Conditions: 10 µM; exposure time: 24h
# Method in brief: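 The modified Z-score of GFP intensity was computed per plate, and the median over replicates is reported. HepG2 Srxn1-GFP BAC reporter cells in three replicate plates were treated for 24 h with compound at 10 μM plus an NRF2 activator at 30 nM (≤0.1% DMSO). Per-cell cytoplasmic GFP came from confocal images, excluding those with under 100 cells, and scaling used 1.4826 × median absolute deviation.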
row,SMILES,Srxn1-GFP intensity median modified Z-score
1,O=C(C1CCCCC1)N1CC(=O)N2CCc3ccccc3C2C1 (stereo not drawn) [euspeclibcmpd240],inactive: 0.445
2,COc1ccc2c(c1)c(CC(=O)O)c(C)n2C(=O)c1ccc(Cl)cc1 [euspeclibcmpd160],inactive: -0.0155
3,CN1CCC(=C2c3ccccc3CCc3cccnc32)CC1 [euspeclibcmpd358],inactive: 0.77
4,OC[C@H]1O[C@H](O[C@]2(CCl)O[C@H](CCl)[C@@H](O)[C@@H]2O)[C@H](O)[C@@H](O)[C@H]1Cl [euspeclibcmpd1232],inactive: -0.465
5,Cc1c(C(=O)O)c(O)cc2c(O)c3c(O)c(O)c(C4O[C@H](CO)[C@@H](O)[C@H](O)C4=O)c(O)c3c(O)c12 (stereo partly drawn) [euspeclibcmpd1436],inactive: -0.693
6,COc1c(CC(=O)c2cc3c(cc2O)OC(C)(C)C(O)C3)ccc2c1C=CC(C)(C)O2 (stereo not drawn) [euspeclibcmpd1608],active: 7.77
7,CCOC(=O)COc1ccc2c(=O)cc(-c3ccccc3)oc2c1 [euspeclibcmpd1189],inactive: -0.365
8,CCC(C)[C@H]1O[C@]2(C=C[C@@H]1C)C[C@@H]1C[C@@H](C/C=C(\C)[C@@H](OC3C[C@H](OC)C(O[C@H]4C[C@H](OC)[C@@H](O)[C@H](C)O4)[C@H](C)O3)[C@@H](C)/C=C/C=C3\CO[C@@H]4[C@H](OC)C(C)=CC(C(=O)O1)[C@]34O)O2 (stereo partly drawn) [euspeclibcmpd1403],active: 5.69
9,C[C@](N)(Cc1ccc(O)c(O)c1)C(=O)O [euspeclibcmpd194],inactive: -0.447
10,Clc1ccc(C(Cn2ccnc2)OCc2ccsc2Cl)c(Cl)c1 (stereo not drawn) [euspeclibcmpd1174],active: 15.7
11,CCC(C)C(=O)O[C@H]1C[C@H](O)C=C2C=C[C@H](C)[C@H](CC[C@@H](O)C[C@@H](O)CC(=O)O)C21 (stereo partly drawn) [euspeclibcmpd2392],inactive: -0.0232
12,CC(C)NCC(O)COc1ccc(CCOCC2CC2)cc1 (stereo not drawn) [euspeclibcmpd810],inactive: -0.00211
13,O=C(O)c1cn(C2CC2)c2cc(N3CCNCC3)c(F)cc2c1=O [euspeclibcmpd592],inactive: -0.385
14,Cc1cc(C(C)(C)C)c(O)c(C(C)(C)C)c1 [euspeclibcmpd1001],active: 14.5
15,Cn1c(=O)[nH]c2ncn(C)c2c1=O [euspeclibcmpd1780],inactive: 0.2
16,Cn1cnc2c1c(=O)[nH]c(=O)n2C [euspeclibcmpd947],inactive: -0.101
17,NCCCNCCCCNCCCN [euspeclibcmpd1526],inactive: 0.00434
18,CCN(CC)CCNC(=O)c1cc(Cl)c(N)cc1OC [euspeclibcmpd197],active: 86.5
19,O=C(O)CCNC(=O)c1ccccc1 [euspeclibcmpd1171],inactive: -0.393
20,OCCN=CCNc1ccc(NCCNCCO)c2c(O)c3c(O)ccc(O)c3c(O)c12 [euspeclibcmpd568],inactive: -1.55
21,CC(=O)NC(Cc1ccccc1)C(=O)O (stereo not drawn) [euspeclibcmpd1186],inactive: -0.292
22,CC(=O)NC(Cc1ccccc1)C(=O)O (stereo not drawn) [euspeclibcmpd2074],inactive: -0.102

row,SMILES,Srxn1-GFP intensity median modified Z-score
1,CCCCCCCCCCCCCCCCCCCCCCO [euspeclibcmpd1090],inactive: -0.229
2,NCCCC(=O)O [euspeclibcmpd1048],inactive: -0.298
3,CC(=O)Oc1cc(OC(C)=O)c2c(c1)O[C@H](c1ccc(OC(C)=O)c(OC(C)=O)c1)[C@@H](OC(C)=O)C2 [euspeclibcmpd2426],inactive: -0.397
4,NS(=O)(=O)c1cc2c(cc1Cl)NC(C(Cl)Cl)NS2(=O)=O (stereo not drawn) [euspeclibcmpd305],inactive: -0.276
5,C=C(NC(=O)C(C)=NC(=O)c1csc(C2=NC3c4csc(n4)C4NC(=O)c5csc(n5)C(C(C)(O)C(C)O)NC(=O)C5CSC(=N5)C(=CC)NC(=O)C(C(C)O)NC(=O)c5csc(n5)C3(CC2)NC(=O)C(C)NC(=O)/C(C)=N/C(=O)C(C)NC(=O)C(C(C)CC)NC2C=Cc3c(C(C)O)cc(nc3C2O)C(=O)OC4C)n1)C(N)=O (stereo not drawn) [euspeclibcmpd703],active: 19.1
6,CN(C)CCOC(c1ccccc1)c1ccccc1 [euspeclibcmpd2254],inactive: 0.213
7,CN(C)CCOC(c1ccccc1)c1ccccc1 [euspeclibcmpd2387],inactive: 0.421
8,CC(=O)Oc1ccccc1C(=O)N=c1[nH]cc([N+](=O)[O-])s1 [euspeclibcmpd615],active: 2.79
9,COc1ccc2[nH]c([S+]([O-])Cc3ncc(C)c(OC)c3C)nc2n1 (stereo not drawn) [euspeclibcmpd1091],inactive: 0.412
10,CCN(CC)C(=O)c1cccnc1 [euspeclibcmpd924],inactive: -0.51
11,CCN(CC)C(=O)c1cccc(C)c1 [euspeclibcmpd939],inactive: -0.0686
12,CCCN(CCC)S(=O)(=O)c1ccc(C(=O)O)cc1 [euspeclibcmpd246],inactive: 0.252
13,C=C(C)[C@@H]1CC[C@]2(C(=O)O)CC[C@]3(C)[C@H](CCC4[C@@]5(C)CC[C@H](O)C(C)(C)C5CC[C@]43C)[C@@H]12 (stereo partly drawn) [euspeclibcmpd1473],inactive: -0.366
14,COc1c(C/C=C(\C)CCC(=O)O)c(O)c2c(O)occ2c1C [euspeclibcmpd334],active: 11.8
15,CN(C)CCN(Cc1ccccc1)c1ccccn1 [euspeclibcmpd312],inactive: -0.754
16,Clc1ccc(CSC(Cn2ccnc2)c2ccc(Cl)cc2Cl)cc1 (stereo not drawn) [euspeclibcmpd401],active: 22.5
17,N=C(N)NC(=O)Cc1c(Cl)cccc1Cl [euspeclibcmpd784],inactive: 1.94
18,COc1cc(O)c(C(=O)c2ccccc2)cc1S(=O)(=O)O [euspeclibcmpd799],inactive: -0.0206
19,Clc1ccc(Cn2c(CN3CCCC3)nc3ccccc32)cc1 [euspeclibcmpd1234],inactive: -0.0615
20,O=C1c2ccccc2C(=O)C1c1ccc(Cl)cc1 [euspeclibcmpd1181],inactive: 0.145
21,O=C(O)COCCN1CCN(C(c2ccccc2)c2ccc(Cl)cc2)CC1 (stereo not drawn) [euspeclibcmpd2104],inactive: -0.409
